{
  "source": "paper PMC10600005",
  "about": "(Nature, 2023)",
  "tested_on": "B. fragilis NrN",
  "test": "HPLC product analysis",
  "format": "biochemical, Bacteroides fragilis",
  "conditions": "0.5 mM MnCl2, pH 7.5, 37 C; 1 uM enzyme, 100 uM substrate; products SAM and AMP",
  "data": [
    {"smiles": "C[S+](CC[C@H](N)C(=O)O)C[C@H]1O[C@@H](n2cnc3c(N)ncnc32)[C@H](O)[C@@H]1OP(=O)(O)OC[C@H]1O[C@@H](n2cnc3c(N)ncnc32)[C@H](O)[C@@H]1O", "note": "(stereo partly shown) [SAM-AMP]", "values": [
      {"measurement": "HPLC product analysis", "value": "NrN specifically degrades SAM-AMP to SAM and AMP"}
    ]}
  ]
}
